From the RNAGym collection of RNA variant scans (doi:10.1073/pnas.2313332121)
This sample is rich in variants without activity.

B1: TPR 5TU (parent)
chain: GGAUCUUCUCGAUCUAACAAAAAAGACAAAUCUGCCACAAAGCUUGAGAGCAUCUUCGGAUGCAGAGGCGGCAGCCUUCGGUGGCGCGAUAGCGCCAACGUUCUCAACUAUGACACGCAAAACGCGUGCUCCGUUGAAUGGAGUUUAUCAUG

Variants of: B1
Test: polymerase ribozyme fitness, log enrichment relative to wild type (log ratio); higher = more active; in vitro selection for triplet polymerase activity
Summary of the method: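 Each subunit of a heterodimeric triplet polymerase ribozyme was mutagenized into a library by PCR, transcribed, and subjected to one round of in vitro selection, run in triplicate. Libraries were annealed with a biotinylated primer, the partner subunit and triplets, incubated frozen at −7 °C, and extended constructs were gel-excised, captured on streptavidin beads and recovered by RT-PCR. Input and output libraries were sequenced on Illumina, keeping genotypes with ≥10 input reads and ≥1 read per output. Fitness is log base 2 of genotype enrichment divided by wild-type enrichment, from inverse-variance-weighted replicate averages.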

GGAUGUUCUCGAUCUAACAAAAAAGACAAAUCUGCCACGAAGCUUGAGAGCAUCUUCGAAUGCAGAGGCGGCAGCCUUCGGUGUCGCGAUAGCGCAAACGUUCUCAACUAUGACACGCAAUACGCGUGCUCCGUUGAAUGGAGUUUAUCAUG [C5G A39G G59A G84U C96A A121U] and GGAUGUUGUCGAUCUAACAAAAAAGACAAAUCUGCCACAAAGCUUGAGAGCAUCUUCGGAUGCAGAGGCGGCAGCCUUCGGUGGAGCGAUAGCGCCAACGUUCUCAACUAUGACACGCAAAACGCUUGCUCCGUUGAAUGGAGUUUAUCAUG [C5G C8G C85A G126U] cannot be ordered by “polymerase ribozyme fitness (log ratio)” value: no more than -4.2 for the first, no more than -4.2 for the second.

GGAUGUUCUCGAUCUAACAAAAAAGACAAAUCUGCCACAAAGCUUGAGAGCAUCUUGGGAUGCAGAGGCGGCAGCCUUCGGUGACGCGAUAGCGCCAACGUUCUCAACUAUGACACGCAAAACGCGUGCUCCGUUGAAUGCAGUUUAUAAUG [C5G C57G G84A G141C C149A] and GGAUGUUCUCGAUCUAACAAAAAAGACAAAUCUGCCACAAAGCUUGAGUGCUUCUACGGAUGCAGACGCGGCAGCCUUCGGUGGUGUGAUAACGCCAACGUUCUCAACUAUGACACGCAAAACGCGUGCUCCGUUGAAUGGAGUUUAUCAUG [C5G A49U A52U U56A G67C C85U C87U G92A] cannot be ordered by “polymerase ribozyme fitness (log ratio)” value: no more than -4.2 for the first, no more than -4.2 for the second.

First: GGAUGUUCUCGAUCUAAAAAAAAAGACAAAUCUGCCACAAAGCUUGAGAGCAUCUUCGGAUGCAGAGGCGGCAGCCUUCGGUGGCGGGAUAGCGCCAACGUUCUCAACUAUGACACGCAAAACGCGUGCUCCGUUGAAUGGAAUUUAUCAUG [C5G C18A C87G G143A]
Second: GGAUGUUCUCGAUCUAACAAAAAAGACAAAUCUGCCACAAAGCUUGAGAGCAUCUUCGGAUGCAGAGGCGGCAGCCUUCGGUGGUGCGAUAGCGCCAACGUUCUCAACUAUGACACGCAAAACGCGUGCUCCGUUGAAUGGUGUUUAUCAUG [C5G C85U A142U]
The “polymerase ribozyme fitness (log ratio)” value of the first is lower: no more than -4.2 for the first, -1.45 for the second.

Compared with GGAUGUCCUCGAUCUAACAAAAAAGACAAAUCUGACACAAAGCUUGAGAGCAUCUUCGGAUGCAGAGGCGGCAGCCAUAGGUGGCGCUAGAGCUCCAACGUUCUCAACUAUGACACGCAAAACGCGUGCUCCGUUGAAUGAAGUUUAUCAUG [C5G U7C C35A U77A C79A G88U U90G G94U G141A], GGAUGUUCCCGAUCUAACAAAAAAGACAAAUCUGCCACAAAGCUUGAGAGCAUCUUCGGAUGCAGAGGCGGCAGCCUUCGGUGGCGCGAUAGCGCCGACGUUCUCAACUAUGACACGCAAAACGCGUGCUCCGUUGAAUGCAGUUUAUCAUG [C5G U9C A97G G141C] is higher in “polymerase ribozyme fitness (log ratio)” value: no more than -4.2 for the first, -3.27 for the second.

GGAUGUCCUCGAUCUCACAAAAAAGAUAAAUGUGCCACAAAGCUUGAGCGCAGCUUCGGAUGCAGAGGCGGCAGCCUUCGGUGGCGCGAUAGCGCCAACGUUCUCAACUAUGACACGCAAAACGAGUGCUCCGUUGUAUGGACUUUAUCAUG [C5G U7C A16C C27U C32G A49C U53G C125A A137U G143C] and GGAUGUUCUCGAUAUAACAAACAAGACAAAUCUGCCACAAAGAUUGAGCGCAUCUUCGGAUGCAGAGGCGGCGGCCUUCGGUGGCGCGAUAGCGACAACGUUCUCAACUAUGACACGCAAAACGCGUGCUCCGUUGAAUGGAGUUUAUCAUG [C5G C14A A22C C43A A49C A73G C95A] cannot be ordered by “polymerase ribozyme fitness (log ratio)” value: no more than -4.2 for the first, no more than -4.2 for the second.

GGAUGUUCUCGAUCUAACAAAAAAGACAAAUCUGCCACAAAGCUUGAGAGCAUCUUCGGAUGCAAGGGCGGCAGCCUUCGGUGGCGCGAUAGCGCCAACGUUCUCAACUAUGACACGCAAAACGCGUGCUCCGUUGCAUGCAGUUUAUCAUG [C5G G65A A66G A137C G141C] and GGAUGUUCUCGAUCUAACAAAAAAGACAAAUCUGCCACAAAGCUUGAGGGCAUCUUAGGAUGCAGAGGCGGCAGCCUUCGGUGGCGCGAUUGCGCCAACGUUCUCAAGUAUGACACGCAAAACGCGUGCCCCGUUGAAUGGAGGUUAUCAUG [C5G A49G C57A A91U C108G U130C U144G] cannot be ordered by “polymerase ribozyme fitness (log ratio)” value: no more than -4.2 for the first, no more than -4.2 for the second.

GGAUGUUCUCGAUCUAACAAAAAAGACAAAUCUGCCACGAAGCUUGAGAGCAUCUUCGGAUGCAGAGGCGGCAGCCUUCGGUGGCGCAAUAGCGCCAACGUUCUCAACUAUGACACGCAAAACGCGUGCUGCGUUGAAUGGAGUUUAUCAUG [C5G A39G G88A C131G] and GGAUGUUCUCGAUCUAACAAAAAAGACAAAUCUGACACAAAGCUUGAGAGCAUCUUCGGGAGCAGAGGCGGCAGCCUUCGGUGGCGCGAUAGUGGCAACGUUCUCAACUAUGACACGCCAAACGCGUGCUCCGUUGAAUGAAGUUUAUCAUG [C5G C35A A60G U61A C93U C95G A119C G141A] cannot be ordered by “polymerase ribozyme fitness (log ratio)” value: no more than -4.2 for the first, no more than -4.2 for the second.

Compared with GGAUGUUCUCGAUCUAACAAAAAAGACAAAUCUGCCAUCAAGCUUGAGAGCAUCUUCGGAUGCAGAGGCGGCAGCCUUCGGUGGCGCGAUAGCGACAACCUUCUCAACUAUGACACGCAAAACGCGUGCUCCGUUGAAUGGAGUUUAUCAUG [C5G C38U A39C C95A G100C], GGAUGUUCUCGAUCUAACAAAAAAGACAAAUCUGCCACAAAGCUUGAGACCAUCUUCGGAUGCAGAGGCGGCAGCCUUCGGUGGUGCGAUAGCGCCAACGUUCUCAACUAUGACACGCAAAACGCGUGCUCCGUUGAAUGGAGUUUAUCAUG [C5G G50C C85U] is higher in “polymerase ribozyme fitness (log ratio)” value: no more than -4.2 for the first, -3.69 for the second.

GGAUGUUCUCGAUCUAACAAAAAAGACAAAUCUGCCACAACACUUGAGAUCAUCUUCGGAUGCAGAGGCGGCAGCCUUCGGUGGCGCGAUAGGGCAAACGUUCUCAACUAUGACACGCAAAACGCGUGCUCCGUUGAAUGGAGUUUAUCAUG [C5G A41C G42A G50U C93G C96A] and GGAUGGGCUCGAUGUAACAAAAAAGACCACUCUGCCACAAAGCUUGAGACGAUCUUCGGAUGCAGAGGCGGCAGCCUUCGGUGGCGCGGUAGGUCCAACGUUCUUAACUAUGACACGAAAAACGCGUGCUCCAUUGAAUGGAGUUUAUCAUG [C5G U6G U7G C14G A28C A30C G50C C51G A89G C93G G94U C105U C118A G133A] cannot be ordered by “polymerase ribozyme fitness (log ratio)” value: no more than -4.2 for the first, no more than -4.2 for the second.

With GGAUGUUCCCGAUCUCACAAAAAAGACGAUUGUGACACAAAGCUUGAGAGCAUCUUCGUAUGCAGAGGCGGCAGCCUUCGGUGGCGCGAUAUCGCCAACGUUCUUAACUAUGACACGCAAAACGCGUGCUCCGUUGAAUGGAGUUUAUCAUG [C5G U9C A16C A28G A30U C32G C35A G59U G92U C105U] the “polymerase ribozyme fitness (log ratio)” value was no more than -4.2.
